# Source: the supplement of paper PMC11417369
# ± gives the standard deviation of the averaged measurements. This is one part of the list.
# Tested on: PfAP2-G AP2 domain (GST-tagged)
# Experiment: gcPBM binding intensity (ln(normalized median fluorescence intensity)); higher = stronger DNA binding
# How it was run: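 GST-tagged P. falciparum DNA-binding domains produced in E. coli were incubated for 1 h on an Agilent 4 × 180k array of primer-extended double-stranded 36-bp intergenic genomic probes with negative controls. Binding intensity is the highest Masliner-normalised natural-log median intensity across replicate spots of either probe orientation, with bound protein detected by Alexa488 anti-GST antibody at 488 nm.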
row,Sequence,gcPBM binding intensity (ln)
1,AAATATATATAAAAGTGTACATTTGTTATAATCAGT [XGTACX_site4822],11.3 ± 0.86
2,TTATATATTTCTACTCATATTACAATGTGAGAAATA [CACACA_negctrl_site873],9.805 ± 0.078
3,TAGATATATAATTTTTGTACGTAGTCGAATCTCAGA [XGTACX_site765],11 ± 0.65
4,CTCAACAAAATATGAGTGCATTGTTATTACATATAT,10.21 ± 0.057
5,AACATTAAAAGGGATACACACATATAAATAAATAAT [CACACA_site489],10.2 ± 0.25
6,TTTCCCTAATGAAAGTGTACCTGTGAGAAAAAAAAG [XGTACX_site194],11.3 ± 0.82
7,TTGTAATTATTAAACACACACAAAATATCTAGAATA [CACACA_site7231],10.1 ± 0.14
8,ATTTAGATTAACACTTGTACATAATACATACAAATA [XGTACX_site4147],10.9 ± 0.5
9,ATTTTTTTTTGTGTATATAAATAAATAAATATATAT [GTGCAC_negctrl_site603],10 ± 0.16
10,AATTAGATACTAACAAGTACATATATATATATATAT [XGTACX_site2252],11.2 ± 0.79
11,TGTATATATTAATGTACACACATGCGTATGTTCGTT [CACACA_site3583],11.2 ± 0.67
12,TTATTTATTTATATAGTGCAATAAACACATAAATAG,10.1 ± 0.26
13,AAAAAAAAAAAAAGAACACACACAGTGCACATTCGG [CACACA_site8163],10.3 ± 0.12
14,CATATTGGTATGCTCATGCACTTTTATTTTGTTATT [GTGCAC_site9553],10.2 ± 0.13
15,AAAAGAAAAGAGAGGAGTACAAAATATAATTATCTA [XGTACX_site5172],11.3 ± 0.76
16,TATAAAAAGCAAAACAAAAAAACAAATTGAAAAATT [TGCATGCA_negctrl_site158],9.76 ± 0.28
17,TATAAATAATAAAGATGTACTTTTTATGATTCCTAC [XGTACX_site7003],11.4 ± 1
18,CCGTAGTTTTAAAATAGTACTTTTATGGTTAATAAA [XGTACX_site3162],11.1 ± 0.68
19,TTTTTTATTTTTTTATTGTTTTATTGTTTCATTGTT [XGTACX_negctrl_site128],9.48 ± 0.16
20,TTACTACTATATTATACACACATATATTTATTTATA [CACACA_site7274],9.99 ± 0.071
21,TAATTTTTCCTTTTTGCACACATTAACGTCGACGAA [CACACA_site4025],10.1 ± 0.21
22,CCATAAAATCATAAGCGTACTTAATATATTTTACTT [XGTACX_site559],11.3 ± 0.82
23,AACATACGACAATACGCACACATATATGTACATATT [CACACA_site1917],11.3 ± 0.75

row,Sequence,gcPBM binding intensity (ln)
1,TATATAATAATTTAGAGTACTGATAAAATATTCCAT [XGTACX_site6200],11.1 ± 0.68
2,TTAAACAATTTAGACATACACACAAAAATAATATTA [CACACA_site385],10.095 ± 0.007
3,AGCATACATATTTTTTGTACATATATATATATATAT [XGTACX_site8536],10.9 ± 0.58
4,CAATTTATTTTTATTACACACTATCCAAATAATTTC [CACACA_site2956],10.1 ± 0.16
5,TCTTTTCGTTCATGCTGTACTTAATTGCTCTAATTT [XGTACX_site4816],11.2 ± 0.79
6,AACCTTACACAAGGGGTGCAATATTATTTCGATAAA [GTGCAC_site9600],10.3 ± 0.35
7,TGCTCCTATTATATAGTGCATTTATTTTAATAAACG,9.96 ± 0.17
8,TAATTTATAAAAAATTGTACATTAAACATATATATA [XGTACX_site5164],10.8 ± 0.56
9,TAAATTGTATATGAGACTATACTATAAAAGTATGAA [XGTACX_negctrl_site22],9.845 ± 0.064
10,TGTCTGTGCGGGTGTACACATTTCATATTACCCAAT [CACACA_site5593],11.8 ± 0.98
11,CCCTGCCTCTCTTTGGTGCGTTGTAACCCTCGAGGA,10.1 ± 0.15
12,AAAAAAAAAAAAAGCACACACACATATGTGTATATA [CACACA_site8225],10.07 ± 0.049
13,TTTTTTTTCACACATTGTACTTTTTTATAAAATATA [XGTACX_site4351],11.4 ± 0.87
14,TAAGAAAAAGGCACACGTACATAATTCAAAATAAAT [XGTACX_site982],11.3 ± 0.67
15,CCAATGAGGATATATACACACATACATTAAAAAAAT [CACACA_site5090],10 ± 0.17
16,ATATATATGTATGTATGTACTTATTTATTTATTTAT [XGTACX_site7740],11.3 ± 0.87
17,ATTTAAATAATATGTACACACATTTAAAAAATTATA [CACACA_site2816],11.5 ± 0.89
18,CGAAATAAATCTTATGCACACAAATAATTAATTAAA [CACACA_site8491],10.03 ± 0.028
19,AAAAAAATATAATATTTGAATAAATATAATAATATG [XGTACX_negctrl_site477],9.57 ± 0.15
20,GTCAACTTGTGATAAGTGCATATATATAATAAAATG,10.2 ± 0.19
21,ATTTATGAAAAGTAAAGTACACACAGGAAAAAAAAA [XGTACX_site3564],11.4 ± 0.72
22,AATATATAGGTATTTACACACAATGTGAGATCTATA [CACACA_site3407],9.955 ± 0.021
